According to PubChem BioAssay AID686979 (National Center for Advancing Translational Sciences (NCATS), 2013):
Screen size: about 420,000 compounds; about 50,000 (12%) were called active. The inconclusive results got no clear call from the source; some entries with a clear call stand among them for comparison. Calls come from the whole dose curve; as a rule, active = well fitted inhibition curve with a large enough effect; inconclusive = small, poorly fitted or top-dose-only effect; inactive = flat fitted curve, though single readings scatter. Potencies of inconclusive entries are left out as doubtful fits.

assay: qHTS for Inhibitors of human tyrosyl-DNA phosphodiesterase 1 (TDP1): qHTS in cells in presence of CPT; details: chicken DT40 Tdp1-/-;hTDP1 cells + 20 nM CPT, ATP luminescence, 48 h; activity change, negative = growth inhibition: at 46.2 µM (top of the series) unless noted; note: nearly all actives have a fitted effect of over 55% in size
How it was run: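 Cell growth measured by CellTiter-Glo luminescence after a minimum 48 h, 37 C compound exposure with 20 nM CPT in Tdp1-knockout DT40 cells stably expressing hTDP1, seeded 400/well; qHTS titration format.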
% is set by controls: 0 for no effect and ±100 for the full control effect; potency is the fitted concentration of half-maximal effect; tags give direction and shape of the fitted curve.

Q: For `COc1cc(C(=O)OCC(=O)NCC2CCCCC2)ccc1OCC(C)C`, which Potency is on record?
A: inconclusive [inhibitor, single point]

Q: Which Potency does the source give for `NCC/C=C1/c2ccccc2CSc2ccccc21` here?
A: active: 25.1 µM

Q: With `COc1ccc(C(=O)NC(C)CCc2ccccc2)c(OC)c1` (stereo not drawn) as the compound, how does the Potency read?
A: inconclusive [inhibitor, single point]

Q: For `Fc1ccc(CN(Cc2ccccc2)C(c2cccs2)c2nnnn2C2CCCCC2)cc1` (stereo not drawn), which Potency is on record?
A: inconclusive [inhibitor, single point]

Q: For `CCCCNC(=O)c1nc(-c2cnccn2)oc1-c1ccc(Cl)cc1`, which Potency is on record?
A: inconclusive [inhibitor, single point]

Q: For `O=C(NCCc1ccccc1Cl)c1ccc2c(c1)nc1n2CCCCC1`, which Potency is on record?
A: inconclusive [inhibitor, single point]

Q: With `CCN(CC)c1ccc(/C=N/Nc2nc(C)cc(=O)[nH]2)c(O)c1` as the compound, how does the Potency read?
A: active: 0.0206 µM

Q: Which Potency does the source give for `CC(=O)/C(N=Nc1ccc(-n2ccc(C(F)(F)F)n2)cc1)=C(\C)O` here?
A: inactive

Q: With `CCc1nnc(NC(=O)c2ccc3c(c2)C(=O)N(CC)C3=O)s1` as the compound, how does the Potency read?
A: inactive

Q: Which Potency does the source give for `CC1=C(C(=O)Nc2nc3ccccc3s2)C(c2ccco2)C(C#N)=C(SCC(=O)NC2CCCCC2)N1` (stereo not drawn) here?
A: active: 13 µM

Q: For `COc1ccc(CN(C)CC(=O)Nc2ccc(SC(F)F)cc2)cc1OC`, which Potency is on record?
A: inactive

Q: For `CS(=O)(=O)c1nc(S(=O)(=O)c2ccc(Cl)cc2)c(NCCCN2CCCC2=O)s1`, which Potency is on record?
A: inactive

Q: With `CC1CC(C)CN(c2ccc([N+](=O)[O-])nc2)C1` (stereo not drawn) as the compound, how does the Potency read?
A: inactive

Q: For `COc1ccc(Cn2c(=O)c3oc4ccccc4c3n(CC(=O)Nc3ccc(F)cc3F)c2=O)cc1`, which Potency is on record?
A: inactive

Q: With `Cc1nn2c(N3CCN(C(=O)c4ccco4)CC3)cc(C(C)(C)C)nc2c1-c1ccccc1` as the compound, how does the Potency read?
A: inconclusive [inhibitor, single point]

Q: Which activity change, negative = growth inhibition does the source give for `COc1ccc2c(c1)CCc1c(C(=O)Nc3ccc(OC)c(OC)c3)noc1-2` here?
A: inconclusive: -32.8% [inhibitor]

Q: With `COc1cc(/C=C/C(=O)OCC(=O)NCc2cccs2)ccc1OC(F)F` as the compound, how does the Potency read?
A: inactive

Q: Which Potency does the source give for `CO/N=C/C(C(C)=O)C(=O)Nc1ccc(Cl)cc1Cl` (stereo not drawn) here?
A: inconclusive [inhibitor, single point]

Q: With `CN1CCN(c2sc(S(C)(=O)=O)nc2S(=O)(=O)c2ccc(Cl)cc2)CC1` as the compound, how does the Potency read?
A: inactive

Q: Which activity change, negative = growth inhibition does the source give for `CCN(CC)CCCNC(=O)c1cc(-c2cccc(Cl)c2)on1` here?
A: inconclusive: -31.7% [inhibitor]

Q: With `CSc1nc(C)cc(C)c1S(=O)(=O)c1ccccc1C` as the compound, how does the Potency read?
A: inconclusive [inhibitor, single point]

Q: With `Cc1ccc(NC(=S)NNC(=O)C2CC2c2ccc(C)cc2)cc1` (stereo not drawn) as the compound, how does the Potency read?
A: inactive

Q: With `Cc1ccc(C2CC2c2n[nH]c(=S)n2-c2cccc(C)c2)cc1` (stereo not drawn) as the compound, how does the Potency read?
A: inconclusive [inhibitor, single point]

Q: With `CCNC(=O)C1(C)CCCN(C(=O)c2ccc3c(c2)C(C)(C)CCC3(C)C)C1` (stereo not drawn) as the compound, how does the Potency read?
A: active: 5.8 µM

Q: Which Potency does the source give for `COc1cccc(C2C(C(=O)c3ccc(C)o3)=C(O)C(=O)N2CCN2CCOCC2)c1OC` (stereo not drawn) here?
A: inactive

Q: With `Cc1cc(NC(=O)C2CCN(S(=O)(=O)c3ccc(Br)s3)CC2)ccc1Br` as the compound, how does the Potency read?
A: inconclusive [inhibitor, single point]

Q: Which activity change, negative = growth inhibition does the source give for `Cc1onc(-c2c(F)cccc2Cl)c1C(=O)Nc1nnc(-c2ccccc2)s1` here?
A: inconclusive: -30.7% [inhibitor]

Q: With `Cc1ccc(Cl)cc1N1CCN(Cc2nnc(-c3ccc4c(c3)OCO4)o2)CC1` as the compound, how does the Potency read?
A: inconclusive [inhibitor, single point]

Q: Which Potency does the source give for `CCOC(=O)CC1CCCCN1C(=O)c1cc(COc2cccc3cnccc23)on1` (stereo not drawn) here?
A: active: 1.64 µM

Q: With `Cc1cc(SCC(=O)NC(=O)NCc2ccco2)nc2ccccc12` as the compound, how does the Potency read?
A: inconclusive [inhibitor, partial curve]

Q: Which Potency does the source give for `COc1ccc(CCNC(=O)C2CCCN(c3nc4ccccc4s3)C2)cc1OC` (stereo not drawn) here?
A: inconclusive [inhibitor, single point]

Q: For `COc1ccc(C(=O)NC(C)c2ccc(-n3ccnc3)cc2)cc1[N+](=O)[O-]` (stereo not drawn), which Potency is on record?
A: inconclusive [inhibitor, single point]

Q: With `CCN(CC)S(=O)(=O)c1cccc(-c2nnc(SCC(=O)c3cc(C)n(C4CC4)c3C)o2)c1` as the compound, how does the Potency read?
A: inconclusive [inhibitor, single point]

Q: Which Potency does the source give for `CC(=O)NCCNc1ncnc2ccc(-c3cccc(NS(C)(=O)=O)c3)cc12` here?
A: inconclusive [inhibitor, single point]

Q: For `Cc1c2cnn(CC(=O)NCCCN3CC(C)CC(C)C3)c(=O)c2c(C)n1Cc1ccccc1Cl` (stereo not drawn), which Potency is on record?
A: inconclusive [inhibitor, partial curve, poor fit]

Q: With `CN(C)S(=O)(=O)c1ccc(C(=O)NCC(=O)N/N=C/c2ccccc2)cc1` as the compound, how does the Potency read?
A: inconclusive [inhibitor, partial curve]

Q: For `COc1ccc(C2SCC(=O)N2CC23CC4CC(CC(C4)C2)C3)cc1` (stereo not drawn), which Potency is on record?
A: inconclusive [inhibitor, single point]

Q: With `Cc1ccc(CNC(=O)CSc2n[nH]c(-c3ccc(F)cc3)n2)cc1` as the compound, how does the Potency read?
A: inconclusive [inhibitor, single point]

Q: For `Fc1ccc(-c2noc3ncnc(NCCCN4CCN(c5ccccc5)CC4)c23)cc1`, which Potency is on record?
A: inconclusive [inhibitor, single point]

Q: Which Potency does the source give for `O=C(NCCC1=CCCCC1)C(=O)NCC(c1ccco1)N1CCN(c2ccc(F)cc2)CC1` (stereo not drawn) here?
A: inconclusive [inhibitor, partial curve]

Q: With `O=C(Oc1c(Br)cc(C(=S)N2CCOCC2)cc1Br)c1ccc(Cl)cc1` as the compound, how does the Potency read?
A: inconclusive [inhibitor, single point]

Q: Which Potency does the source give for `CC1=Nc2nc(N3CCCCC3)c(C#N)c3c4c(nc(c23)N1)N(c1ccc(C(C)C)cc1)C(=O)C4` here?
A: inconclusive [inhibitor, single point]

Q: With `O=C(O)c1cccc2c1Cc1cc(Cl)ccc1-2` as the compound, how does the Potency read?
A: inconclusive [inhibitor, single point]

Q: With `Cc1cc(=O)[nH]c(SCC(=O)Nc2ccc3c(c2)OCCO3)n1` as the compound, how does the Potency read?
A: inactive

Q: Which Potency does the source give for `O=C(NC1CCN(C(=O)Nc2ccc(F)cc2)CC1)c1ccc(F)cc1` here?
A: inactive

Q: Which Potency does the source give for `c1ccc(OCCOCCOc2ccccc2)cc1` here?
A: inactive

Q: With `COc1cc(C(=O)Oc2ccccc2)ccc1OCc1c(C)noc1C` as the compound, how does the Potency read?
A: inconclusive [inhibitor, single point]

Q: With `C=CCn1c2ccccc2c2nnc(SCC(N)=O)nc21` as the compound, how does the Potency read?
A: inactive

Q: For `O=C(CSc1ccc(Cl)cc1)Nc1nnc(-c2cccc([N+](=O)[O-])c2)s1`, which Potency is on record?
A: inconclusive [inhibitor, single point]

Q: With `CCSC1=N/C(=C\c2ccc(C)s2)C(=O)S1` as the compound, how does the Potency read?
A: inactive

Q: With `CCOC(=O)CCNC(=O)Nc1cc2nc(C)n(Cc3cccc(Cl)c3)c2nc1C` as the compound, how does the Potency read?
A: inactive

Q: Which Potency does the source give for `Cn1c(C(O)c2ccc3c(c2)OCO3)nc2ccccc21` (stereo not drawn) here?
A: active: 16.4 µM

Q: With `CC1(C)c2[nH]c3ccccc3c2C[C@H]2C(=O)N(CCCCCO)CC(=O)N21` as the compound, how does the Potency read?
A: inactive

Q: Which Potency does the source give for `O=C1NC[C@H](Cc2ccccc2)N(C[C@H]2CCCN2C[C@H](Cc2ccc(O)cc2)N2C[C@H](Cc3ccc(O)cc3)N(CC3CCCCCC3)C(=O)C2=O)C1=O` here?
A: inconclusive [inhibitor, single point]

Q: For `CCOC(=O)c1ccc(NC(=O)c2ccc(NC(=O)C3CCCO3)cc2)cc1` (stereo not drawn), which Potency is on record?
A: inconclusive [inhibitor, single point]

Q: With `COc1ccc(C(=O)NCC(c2ccc(N(C)C)cc2)N2CCc3ccccc32)c(OC)c1` (stereo not drawn) as the compound, how does the Potency read?
A: active: 18.4 µM

Q: For `COc1ccc(NC(=O)CN2CCN(C(=S)NC3CCCC3)CC2)cc1`, which Potency is on record?
A: inactive

Q: For `CC(O)C(NS(=O)(=O)c1ccc(Cl)cc1)C(=O)OCc1cc([N+](=O)[O-])cc2c1OCOC2` (stereo not drawn), which Potency is on record?
A: inconclusive [inhibitor, single point]

Q: For `CC(Nc1c[nH]c(=O)[nH]c1=O)c1ccccc1` (stereo not drawn), which Potency is on record?
A: inactive

Q: For `S=c1[nH]c(-c2ccccc2)cn1/N=C/c1ccc(Br)cc1`, which Potency is on record?
A: active: 3.66 µM

Q: With `COc1cccc(NC(=O)CC2NCCNC2=O)c1` (stereo not drawn) as the compound, how does the Potency read?
A: inactive

Q: Which Potency does the source give for `C#CCNC(=O)C[C@@H]1C[C@@]2(C(=O)OC)CC(C)(C)CC=C2N(CCc2ccc(OC)c(OC)c2)C1=O` here?
A: inconclusive [inhibitor, single point]

Q: With `CCOC(=O)Cc1csc(NC(=O)CCN2C(=O)c3cccc([N+](=O)[O-])c3C2=O)n1` as the compound, how does the Potency read?
A: inactive

Q: Which Potency does the source give for `CCCCN(C)C(=O)c1sc(=O)n(CC(=O)c2ccccc2OC)c1C` here?
A: inconclusive [inhibitor, single point]

Q: For `COc1cc2nc(CN(C)CC(=O)Nc3ccc(N4CCOCC4)cc3)[nH]c(=O)c2cc1OC`, which Potency is on record?
A: inactive

Q: For `CNC(=O)N(O)C1N(/N=C/c2ccc(C)cc2)C(=S)SC1(C)C` (stereo not drawn), which Potency is on record?
A: inactive

Q: For `Cc1ccc(NC(=O)CCc2c(C)nc3cc(-c4ccccc4)nn3c2C)cc1F`, which Potency is on record?
A: inconclusive [inhibitor, single point]

Q: For `O=C(NCc1ccccn1)c1ccc2nc(C3CCCCC3)oc2c1`, which Potency is on record?
A: inactive

Q: Which Potency does the source give for `CCCNC(=O)c1nc(C)n(-c2cc(Cl)ccc2Cl)n1` here?
A: inactive

Q: Which Potency does the source give for `O=C(NC1CCCC1)C(c1ccc(F)cc1)N(Cc1ccccc1Cl)C(=O)CCl` (stereo not drawn) here?
A: active: 5.8 µM

Q: For `N#CC1=C2C=Cc3ccccc3N2CCCC1=O`, which Potency is on record?
A: inactive

Q: With `Cc1cccc(C(C(C(=O)c2ccccc2)N2CCOCC2)N2CCOCC2)c1` (stereo not drawn) as the compound, how does the activity change, negative = growth inhibition read?
A: inconclusive: -31.2% [inhibitor]

Q: Which Potency does the source give for `CCOC(=O)c1ccc(NC(=O)CCc2nc(-c3ccc(C)cc3)no2)cc1` here?
A: inconclusive [inhibitor, single point]
